In all, about 150,000 compounds went through this assay and about 540 (0.36%) showed an effect of 50% or more. Some of the results follow.

The values that follow come from ChEMBL document CHEMBL4888484, “Replenishing the malaria drug discovery pipeline: Screening and hit evaluation of the MMV Hit Generation Library 1 (HGL1) against asexual blood stage Plasmodium falciparum ,using a nano luciferase reporter read-out” (2022).

This test relates to Plasmodium falciparum. As to the kind of experiment: Primary screen in NF54 nanoGlo assay, in single point, at 2uM, 72h; a lower Z score goes with more inhibition. The settings on record: timepoint 72 hour. In kind it is functional, Erythrocyte.
With `CC(C)Cn1cc(C(=O)N(Cc2ccco2)c2ccccn2)cn1`, the “% Inhibition” value is given as 13% and the Z score is given as -1.63.

`Cc1ccsc1-c1cc(NS(=O)(=O)C[C@H]2CCCCO2)[nH]n1`: the “% Inhibition” value amounted to 0% and the Z score is -0.03.

Regarding `COc1ccncc1NC(=O)CCOc1ccccc1`, the “% Inhibition” value is reported as -1% and the Z score was 0.16.

On to `CS(=O)(=O)NC[C@@](O)(c1ccccc1)C1CC1`, for which the “% Inhibition” value is 4% and the Z score is given as -0.49.

Turning to `CCc1ncc(NC(=O)NC(C)(C)c2noc(C)n2)cn1`, the “% Inhibition” value is -7% and the Z score amounted to 0.77.

As for `COc1ccc(-c2nc3c(cnn3C3CCN(C)CC3)[nH]2)cn1`, the “% Inhibition” value was -7% and the Z score came to 0.9.

`CC1CC(C)(C)C(CNC(=O)c2ccccn2)C1NC(=O)c1ccccn1` (stereo not given): the “% Inhibition” value is -18% and the Z score is reported as 2.36.

On to `Cc1nc(CC(=O)NC[C@@H]2C[C@@H]3C=C[C@@H]2C32CC2)cs1`, for which the “% Inhibition” value is listed as -6% and the Z score is given as 0.94.

On to `Fc1ccc(-c2cnc3n2C[C@H](CNCc2cccs2)OC3)cc1`, for which the “% Inhibition” value was -6% and the Z score worked out at 0.9.

With `Cn1nc(CN2CCCC2)c2c1CCN(S(=O)(=O)c1ccc(F)cc1F)C2`, the “% Inhibition” value is reported as -3% and the Z score is recorded as 0.54.

As for `CC1(C)CN(C[C@@H]2CNC(=O)C2)Cc2ccccc21`, the “% Inhibition” value is on record as -11% and the Z score was found to be 1.69.

In the case of `Cc1cc(C(=O)N[C@H]2CC[C@@H](CO)CC2)ccc1Cl`, the “% Inhibition” value came out at 3% and the Z score is -0.47.

For the compound `COCC1(C2CCC2)CN(C(=O)N[C@H]2CCCc3c(F)cccc32)C1`, the “% Inhibition” value is 1% and the Z score was -0.24.

For the compound `CC#CCNC(=O)N[C@@H](CC)c1noc(C)n1`, the “% Inhibition” value amounted to 1% and the Z score is on record as -0.09.

In the case of `CCCO[C@H]1CCCN(c2ncnc3[nH]ccc23)C1`, the “% Inhibition” value is recorded as 0% and the Z score is -0.05.

Regarding `Cc1ccccc1C1(O)CCN(CCC2CCS(=O)(=O)C2)C1` (stereo not given), the “% Inhibition” value is listed as -4% and the Z score was found to be 0.76.

On to `CCC1=NO[C@@H](CN(C)Cc2snnc2C)C1`, for which the “% Inhibition” value is recorded as 1% and the Z score is given as -0.05.

Take `O=C(c1cc(-c2ccccc2)nc2ccccc12)N1CCC(O)(C(=O)O)CC1`: the “% Inhibition” value is listed as -10% and the Z score worked out at 1.99.

Consider `COc1ccc([C@H](C)NC(=O)N2CCC(Nc3ccccc3C)CC2)c(OC)c1`, for which the “% Inhibition” value was -5% and the Z score stood at 0.82.

In the case of `O=C(c1ccco1)N1CCN(c2nc(CN3CCN(c4ccccc4Cl)CC3)cc(=O)[nH]2)CC1`, the “% Inhibition” value amounted to 2% and the Z score was -0.21.

For `CCCCN(C)C(=O)c1c(C)c(S(=O)(=O)N2CCC(C)CC2)c(C)n1C`, the “% Inhibition” value is on record as -15% and the Z score is on record as 1.94.

With `CCOc1cccc(CN2CCCn3nc(CNC(=O)C4CCC4)cc3C2)c1`, the “% Inhibition” value was -16% and the Z score was 1.52.

As to `CCc1nn(C)c(Cl)c1CN(C)Cc1nc(C)cs1`, the “% Inhibition” value is given as -8% and the Z score was determined as 1.57.

Consider `COCc1nc(CNC(=O)Cc2ccc3c(c2)CCCO3)cs1`, for which the “% Inhibition” value was -6% and the Z score turned out to be 0.8.

As for `Cc1cc2c(cc1C)N(c1nc3c(cnn3C)c(=O)[nH]1)CC2`, the “% Inhibition” value is listed as 7% and the Z score is reported as -0.86.

Regarding `Cc1cc([C@@H](O)CNC(=O)CC(C)(C)C)c(C)o1`, the “% Inhibition” value is recorded as 1% and the Z score is -0.1.

On to `O=S1(=O)CCc2nnc(-c3cc4c(s3)CCCCC4)n2CC1`, for which the “% Inhibition” value is reported as 6% and the Z score is -1.17.

Take `CN(C[C@H]1CCCCO1)C(=O)Cn1nnnc1CN1CCCCCC1`: the “% Inhibition” value is -8% and the Z score came to 1.19.

Turning to `FC(F)[C@H]1CCCN1Cc1ccn[nH]1`, the “% Inhibition” value was -1% and the Z score was 0.08.

`Cn1cc([C@]2(CNC(=O)c3cc4n(n3)CCCO4)CCCO2)cn1`: the “% Inhibition” value is on record as -8% and the Z score came to 1.29.

Regarding `CON1C(=O)C(C)(C)N(OC)C(=O)C1(C)C`, the “% Inhibition” value is -1% and the Z score amounted to 0.19.

On to `COC(=O)N[C@@H](CC(C)C)C(=O)Nc1cccc(-c2ncc(C)[nH]2)c1`, for which the “% Inhibition” value is -3% and the Z score came out at 0.56.

In the case of `CCCc1onc(C)c1C(=O)NS(=O)(=O)c1ccc(C)s1`, the “% Inhibition” value is -6% and the Z score was 0.88.

In the case of `C#C[C@H](C)OC(=O)c1cccc(C(=O)NC)c1`, the “% Inhibition” value was -5% and the Z score amounted to 0.66.

For the compound `Cc1c[nH]c(CN(C)C(=O)C2(N3C[C@@H](C)O[C@@H](C)C3)Cc3ccccc3C2)n1`, the “% Inhibition” value worked out at 2% and the Z score is listed as -0.31.

As for `CCC1NC2(C(=O)N(CC(=O)Nc3ccc(C)cc3)c3ccccc32)C2C(=O)N(Cc3ccccc3)C(=O)C12` (stereo not given), the “% Inhibition” value is 0% and the Z score is recorded as -0.02.

As to `CCC[C@@H](CNC(=O)c1cc(F)cc(Cl)c1)N(C)C`, the “% Inhibition” value was -2% and the Z score is listed as 0.23.

On to `O=C(NC[C@H]1CCOC2(CCC2)C1)c1ccncc1Br`, for which the “% Inhibition” value was determined as 3% and the Z score was -0.45.

For `CC1CN(C(=O)Cn2cc(NC(=O)C3(C)COC3)cn2)CC(C)O1` (stereo not given), the “% Inhibition” value is listed as 12% and the Z score is -1.55.

Take `O=C([C@H]1CCCN(c2c(-c3ccccc3)c3cc(Cl)ccc3[nH]c2=O)C1)N1CCN(CCO)CC1`: the “% Inhibition” value is -9% and the Z score was determined as 0.98.

In the case of `CC(C)CCC(C)NC(=O)NCC1CCCS1(=O)=O` (stereo not given), the “% Inhibition” value is reported as -4% and the Z score came to 0.49.

For `CC1CC(c2ccsc2)CN1C(=O)NCCN1CCOCC1` (stereo not given), the “% Inhibition” value was -12% and the Z score is on record as 2.

For `Cc1ccc(C)c(-n2ncnc2[C@H](C)N2CCN(C)CC2)c1`, the “% Inhibition” value is 4% and the Z score is reported as -0.63.

As to `Fc1ccc(-c2nc(N3CCOCC3)ncc2-c2nnnn2-c2ccccc2)c(F)c1`, the “% Inhibition” value is recorded as 7% and the Z score is -0.79.

As for `CC(C)(CCC#N)CNC[C@H]1CCCn2cc(C(C)(C)C)nc21`, the “% Inhibition” value is given as -13% and the Z score is listed as 2.01.

Turning to `CS(=O)(=O)C[C@H](NCC1=Cc2ccccc2OC1)c1ccccc1`, the “% Inhibition” value was -3% and the Z score is 0.3.

Consider `CNc1nc(C)cc(C(=O)N(CC(C)C)C2CCN(C)CC2)n1`, for which the “% Inhibition” value was 3% and the Z score is -0.33.

For `Cc1oc(S(C)(=O)=O)cc1C(=O)N[C@@H](C)c1n[nH]c(C(C)C)n1`, the “% Inhibition” value is given as -6% and the Z score was 0.96.

For `O=C(NCC1CCN(Cc2cc[nH]n2)CC1)c1ccccn1`, the “% Inhibition” value is reported as -1% and the Z score was 0.19.

For `OCC1CCCCC1Nc1nccc(C(F)(F)F)n1` (stereo not given), the “% Inhibition” value is given as -15% and the Z score was determined as 2.79.

For the compound `CCS(=O)(=O)c1ccccc1NCCc1cn2c(n1)CCCC2`, the “% Inhibition” value is reported as -10% and the Z score turned out to be 1.12.

As for `COc1cccc(-c2cc(O)n(-c3ccccc3OC)n2)c1`, the “% Inhibition” value was -5% and the Z score is recorded as 0.71.

As to `NC(=O)CN1CCC(NC(=O)c2cc3c(s2)CCCCC3)CC1`, the “% Inhibition” value was -3% and the Z score is reported as 0.57.

Consider `FC(F)(F)Oc1ccc(-c2c[nH]c([C@@H]3COCCN3C3CCOCC3)n2)cc1`, for which the “% Inhibition” value is given as -4% and the Z score stood at 0.67.

With `Cc1ccc2nc(N3CCC[C@H](O)C3)c(CN3CCN(CCO)CC3)cc2c1`, the “% Inhibition” value was -11% and the Z score is reported as 1.09.
